Measurements: PubChem BioAssay AID504339 (National Center for Advancing Translational Sciences (NCATS), 2011)
Screen size: about 390,000 compounds; about 17,000 (4.4%) were called active. Inconclusive results, whose numbers are uncertain, are shown with a selection of clear calls. Calls come from the whole dose curve; as a rule, active = well fitted inhibition curve with a large enough effect; inconclusive = small, poorly fitted or top-dose-only effect; inactive = no such curve, though single readings can be large or run the other way. Where the call is inconclusive, the potency comes from a doubtful curve fit.

Target: Lysine-specific demethylase 4A (Homo sapiens) (UniProt O75164)
Chain of UniProt O75164 (O75164 whole entry, looked up, the tested form may be a part): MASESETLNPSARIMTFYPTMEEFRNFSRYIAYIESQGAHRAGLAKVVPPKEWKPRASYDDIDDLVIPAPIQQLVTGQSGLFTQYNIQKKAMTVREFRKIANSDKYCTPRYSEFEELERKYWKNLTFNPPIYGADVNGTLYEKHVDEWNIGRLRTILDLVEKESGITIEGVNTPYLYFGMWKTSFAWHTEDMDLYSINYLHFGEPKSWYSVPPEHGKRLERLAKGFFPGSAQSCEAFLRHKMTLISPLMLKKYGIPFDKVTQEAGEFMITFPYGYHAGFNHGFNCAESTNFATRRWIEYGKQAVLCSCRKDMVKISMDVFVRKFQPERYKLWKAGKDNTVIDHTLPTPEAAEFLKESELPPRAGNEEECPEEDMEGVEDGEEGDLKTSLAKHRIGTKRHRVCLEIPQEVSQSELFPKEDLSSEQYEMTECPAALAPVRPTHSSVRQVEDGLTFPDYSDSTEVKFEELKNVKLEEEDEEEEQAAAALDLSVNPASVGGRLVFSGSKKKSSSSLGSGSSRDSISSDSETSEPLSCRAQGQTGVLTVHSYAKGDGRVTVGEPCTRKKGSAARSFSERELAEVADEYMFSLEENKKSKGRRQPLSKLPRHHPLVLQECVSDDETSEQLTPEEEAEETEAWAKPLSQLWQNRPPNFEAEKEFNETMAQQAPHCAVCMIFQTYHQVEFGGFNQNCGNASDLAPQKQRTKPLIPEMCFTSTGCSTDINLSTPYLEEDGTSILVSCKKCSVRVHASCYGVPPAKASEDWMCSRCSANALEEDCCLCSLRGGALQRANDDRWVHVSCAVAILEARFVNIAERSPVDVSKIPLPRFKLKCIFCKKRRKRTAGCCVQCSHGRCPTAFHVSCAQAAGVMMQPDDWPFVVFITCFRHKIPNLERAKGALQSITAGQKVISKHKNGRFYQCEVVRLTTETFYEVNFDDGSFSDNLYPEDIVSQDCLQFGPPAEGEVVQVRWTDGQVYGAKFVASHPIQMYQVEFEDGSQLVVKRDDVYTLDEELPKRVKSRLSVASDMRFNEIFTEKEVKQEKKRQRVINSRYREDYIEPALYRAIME
Experiment: qHTS Assay for Inhibitors of JMJD2A-Tudor Domain; note: nearly all actives have a fitted effect of over 50% in size
Conditions: AlphaScreen JMJD2A-Tudor / H3K4me3 peptide binding; series mostly up to 114 µM
Potency is the fitted concentration of half-maximal effect; tags give direction and shape of the fitted curve.

Potency, inconclusive:
COc1ccc(CNS(=O)(=O)c2ccc(N3CCCC3)cc2Br)cc1 50.1 µM [inhibitor, partial curve]
NS(=O)(=O)c1ccc(N=Nc2c(O)c(C(=O)O)cc3ccccc23)cc1 63.1 µM [inhibitor, partial curve]
O=C(C[C@H]1C[C@H](C(=O)N2CCOCC2)[C@@]2(CCC3CCCC3)c3[nH]c4cc(-c5ccco5)ccc4c3CCN2C1=O)NCCc1ccccn1 56.2 µM [inhibitor, partial curve]
COC(=O)CCCC1=CC2=CC(=O)C(C)(OC(=O)c3cccs3)C(=O)C2=CN1c1ccc(OC)cc1 (stereo not drawn) 44.7 µM [inhibitor, partial curve]
Cc1ccccc1OCC(=O)Nc1ccc(N2CCN(C(=O)c3ccco3)CC2)cc1 56.2 µM [inhibitor, partial curve]
Cc1cc2oc3ccc(NCCC4CCCN4C)cc3c(=O)c2cc1C (stereo not drawn) 50.1 µM [inhibitor, partial curve]
COc1cc(-c2ccc3ncnc(NCCc4cnc[nH]4)c3c2)cc(OC)c1OC 79.4 µM [inhibitor, partial curve]
NCCSc1c(-c2ccccc2)[nH]c2ccccc12 63.1 µM [inhibitor, partial curve, poor fit]
CCOc1ccc(NC(=O)CN2CCN(c3ccc(F)cc3)CC2)cc1 12.6 µM [inhibitor, partial curve]
CCCC[C@@H](CNC)NC[C@H](Cc1ccc(O)cc1)NCCc1ccc(OCC)cc1 20 µM [inhibitor, full curve]
Cc1ccc2c(c1)-c1c(cnn1CC(=O)N(Cc1ccco1)C1CCCCC1)CO2 89.1 µM [inhibitor, partial curve]
O=C(Cn1cc(S(=O)(=O)N2CCN(c3ccccc3F)CC2)c2ccccc2c1=O)NCCCN1CCCCCC1 10 µM [inhibitor, full curve, poor fit]
CS(=O)(=O)c1cccc(-c2nnc(NC(=O)CCS(=O)(=O)c3ccccc3)o2)c1 35.5 µM [inhibitor, single point]
O=C(NCCCN1CCN(c2ccccc2F)CC1)C1COc2ccccc2C1 (stereo not drawn) 63.1 µM [inhibitor, partial curve]
O=[N+]([O-])c1cccc(/C([O-])=C(/C(=S)Nc2ccccc2)[n+]2ccccc2)c1 39.8 µM [inhibitor, single point]
O=c1c2ccccc2c(C=NCc2ccccn2)c(O)n1-c1ccccc1Cl 56.2 µM [inhibitor, partial curve]
COc1ccc(C(=O)N/C(=C\c2cn(S(=O)(=O)N(C)C)c3ccccc23)C(=O)N2CCN(C)CC2)cc1 50.1 µM [inhibitor, partial curve]
COc1ccc(CCNC(=O)CCS(=O)(=O)c2ccc3c(c2)NC(=O)CS3)cc1OC 22.4 µM [inhibitor, single point]
O=[N+]([O-])c1cc(/C=N\O)ccc1Oc1ccc(F)cc1 39.8 µM [inhibitor, partial curve]
CNc1sc(C(=O)c2ccc(F)cc2)c(N)c1-c1nc2ccccc2s1 10 µM [inhibitor, full curve]
COc1cc(C(=O)NCC(c2cccs2)N2CCc3ccccc32)cc(OC)c1OC (stereo not drawn) 28.2 µM [inhibitor, full curve]
COc1ccc(CC(=O)N2CCCC(C)C2)cc1 (stereo not drawn) 89.1 µM [inhibitor, single point]

Potency, active:
COc1ccc(-c2csc(=Nc3ccccc3)n2CCO)cc1 44.7 µM
Cc1ccc(NC(=O)Cn2sc3nc(C)cc(C)c3c2=O)c(Cl)c1 1.58 µM
S=C(Cc1cccnc1)N1CCOCC1 79.4 µM
COc1cc(-c2nc3ccc(Cl)cn3c2Nc2ccc3c(c2)OCO3)ccc1O 31.6 µM
CCOc1cccc(C(=O)Nc2ccc(N(CC)CC)cc2)c1 25.1 µM
COc1cc(OC)cc(C(=O)NCCN2CCOCC2)c1 10 µM
Cc1ccc(-n2c(-c3ccncc3)n[nH]c2=S)cc1C 5.01 µM
COc1cccc(-c2nc(CCl)cs2)c1OC 50.1 µM
Cc1ccc(S(=O)(=O)Nc2ccc3nc(-c4cccn4C)[nH]c3c2)cc1 15.8 µM
Cc1ccc(N=Nc2cc(C)ccc2O)c(C)c1 44.7 µM
CC(C)c1cc2c(c(O)c1O)[C@@]13CCCC(C)(C)C1CC2OC3=O (stereo partly drawn) 39.8 µM
CC(=O)Nc1sc(N/N=C\c2ccccc2)nc1-c1cccs1 20 µM
COc1ccc(C2Nc3ccccc3C(=O)N2CCCN(C)C)cc1COc1ccc(NC(C)=O)cc1 (stereo not drawn) 79.4 µM
C/C=C/c1ccc(OCCCCN2CCN(CC)CC2)c(OC)c1 20 µM

Potency, inactive:
CC1CC(C)CN(C(=O)c2ccc3c(c2)OCCO3)C1 (stereo not drawn)
COC(=O)NNC(=O)CCCOc1ccc(Cl)cc1Cl
COc1cc2ccccc2cc1C(=O)Nc1cccc(-c2nc3ccccc3o2)c1
O=C(O)c1cccnc1SCc1cccc(Cl)c1
COC(=O)C1CSc2[nH]c(=O)sc2C1c1ccc(OC)c(OC)c1 (stereo not drawn)
COc1cc(-c2nnc(SCC(=O)NC3CCCC3)n2C)cc(OC)c1O
Nc1nnc(SCC(=O)c2ccc([N+](=O)[O-])cc2)s1
COCCCN1C(=O)C(=O)/C(=C(/O)c2ccc(C)cc2)C1/C=C/c1ccccc1 (stereo not drawn)
O=C(c1ccco1)N1CCN(C(=O)c2cn(-c3ccccc3)nc2-c2ccccc2)CC1
Cn1c(C(=O)N2CCC(C(N)=O)CC2)cc2cc(Cl)ccc21
O=C(NNC(=S)NC(=O)c1cccs1)c1ccc(NC(=O)c2ccccc2)cc1
O=C(C[n+]1cc(-c2ccc(Cl)c(Cl)c2)n2c1CCC2)N1c2ccccc2Sc2ccccc21
